# Source: paper PMC4336329 (PLoS ONE, 2015)
# About 14,000 (4.5%) of roughly 310,000 compounds showed an effect of 50% or more. Effects have a minus sign here. The list shows a part of the results.
# Target: human ether-à-go-go-related gene (hERG) potassium channel (human, UniProt Q12809)
# Assay: primary screen, population patch clamp on CHO cells stably expressing hERG
# 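Further: peak tail current of the secondary pulse compared with the same well before compound.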
# Sequence of human ether-à-go-go-related gene (hERG) potassium channel (Q12809 whole entry, looked up): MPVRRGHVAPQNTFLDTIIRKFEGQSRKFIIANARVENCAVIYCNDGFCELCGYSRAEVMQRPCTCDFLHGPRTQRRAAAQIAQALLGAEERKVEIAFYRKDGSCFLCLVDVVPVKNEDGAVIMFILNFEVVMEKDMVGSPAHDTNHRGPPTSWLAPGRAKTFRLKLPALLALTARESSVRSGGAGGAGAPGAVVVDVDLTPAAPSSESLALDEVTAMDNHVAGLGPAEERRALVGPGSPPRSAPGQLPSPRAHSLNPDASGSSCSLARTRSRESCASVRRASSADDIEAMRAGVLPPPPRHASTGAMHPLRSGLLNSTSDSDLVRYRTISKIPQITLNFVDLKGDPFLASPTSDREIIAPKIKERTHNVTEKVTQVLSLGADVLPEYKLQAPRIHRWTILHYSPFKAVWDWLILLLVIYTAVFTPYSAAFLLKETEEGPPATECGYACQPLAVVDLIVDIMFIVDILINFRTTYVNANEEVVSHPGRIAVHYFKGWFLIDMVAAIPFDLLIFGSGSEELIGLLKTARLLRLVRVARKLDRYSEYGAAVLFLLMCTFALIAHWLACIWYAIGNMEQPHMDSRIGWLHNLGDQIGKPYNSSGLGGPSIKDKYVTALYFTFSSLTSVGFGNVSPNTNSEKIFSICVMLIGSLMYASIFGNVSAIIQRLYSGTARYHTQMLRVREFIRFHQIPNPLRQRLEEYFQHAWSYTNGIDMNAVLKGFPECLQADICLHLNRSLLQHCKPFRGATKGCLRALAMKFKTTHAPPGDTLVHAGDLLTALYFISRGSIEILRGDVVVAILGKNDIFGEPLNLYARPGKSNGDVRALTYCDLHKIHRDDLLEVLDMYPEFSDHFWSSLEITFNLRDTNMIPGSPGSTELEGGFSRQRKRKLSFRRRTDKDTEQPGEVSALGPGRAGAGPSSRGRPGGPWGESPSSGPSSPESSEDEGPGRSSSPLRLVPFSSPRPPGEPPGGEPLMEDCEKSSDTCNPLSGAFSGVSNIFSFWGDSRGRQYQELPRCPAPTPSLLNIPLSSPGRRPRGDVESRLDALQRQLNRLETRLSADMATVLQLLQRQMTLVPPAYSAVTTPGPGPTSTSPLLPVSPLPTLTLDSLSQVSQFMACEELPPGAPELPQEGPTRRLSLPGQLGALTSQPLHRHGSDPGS
row,SMILES,"hERG current change (%, negative = inhibition) at 10uM [%]"
1,Cc1ccc(/C(O)=C2/C(=O)C(=O)N(CCN3CCOCC3)C2c2cccnc2)cc1 (stereo not shown),3.93
2,C=CCOc1ccc(CN(C)Cc2nc3cc(C(F)(F)F)ccc3c(=O)[nH]2)cc1,-14.2
3,Nc1cc(=O)nc(SCC(=O)N2CCN(c3ccccc3)CC2)n1-c1ccc(F)cc1,16.5
4,Cc1ccc(OCC(=O)N/N=C\c2ccc(-c3cccc(C(=O)O)c3)o2)c(C)c1,31.5
5,O=C(Nc1ccc(S(=O)(=O)N2CCCC2)cc1)C1CC(=O)N(c2ccc(F)cc2)C1 (stereo not shown),8
6,CCOC(=O)c1[nH]c2ccccc2c1N=CN(C)C,-28.9
7,COC(=O)c1ccccc1NC(=O)Cn1cnc2c(cnn2-c2ccc(C)c(C)c2)c1=O,8.83
8,COc1ccc(CN(C)C(=O)c2ccc(NS(=O)(=O)c3ccc(F)cc3)cc2)c(OC)c1OC,-55.6
9,COc1ccc(N2CCN(C(=O)Cn3cnc4c(cnn4-c4ccc(C)cc4)c3=O)CC2)cc1,-9.24
10,CC1CCc2c(sc3ncn(CCO)c(=O)c23)C1 (stereo not shown),14.8
11,O=C(CSc1nnc(-c2cccnc2)s1)Nc1ccc(C(=O)O)cc1,19
12,CC1=C(C(N)=O)C(c2ccccc2F)NC(=O)N1 (stereo not shown),17
13,O=C(COC(=O)c1cc(Cl)ccc1[N+](=O)[O-])Nc1cccc2ccccc12,-1.97
14,COc1ccc(-c2csc(C)n2)cc1Br,17.4
15,CCOc1ccc(N2C(=O)CC(Cc3ccc(Br)cc3)C2=O)cc1 (stereo not shown),5.77
16,COc1ccc(NC(=O)c2cc(C)cc(C)c2)cc1[N+](=O)[O-],-2.42
17,COc1ccc(C(CNC(=O)c2cccc(S(=O)(=O)Nc3ccc(C)cc3)c2)N2CCCCC2)cc1 (stereo not shown),-30.7
18,COc1ccc(C2CC(c3ccc(OC)c(OC)c3)=NN2C(=O)c2ccccc2)cc1 (stereo not shown),9.33
19,Cc1ccc(NC(=O)CSc2nsc(SCC(=O)Nc3ccc(C)cc3C)c2C#N)c(C)c1,23.2
20,O=C(NNS(=O)(=O)c1ccc(Br)cc1)C1CCCCC1,10.3
21,CCOc1ccc(Nc2ccc([N+](=O)[O-])c3nonc23)cc1,-53.9
22,COc1nc(C)ccc1-c1noc(-c2cccs2)n1,8.17
23,Cc1ccc(C)c(S(=O)(=O)N2CCN(C(=O)Cc3c(F)cccc3Cl)CC2)c1,-18.9
24,O=C(/C=C/c1ccc([N+](=O)[O-])cc1)c1ccco1,-41.5
25,CCOC(=O)C(C)Oc1ccccc1C1NC(=O)NC(C)=C1C(=O)Nc1ccc(C)c(C)c1 (stereo not shown),0.583
26,O=C(NNC(=O)c1cc2ccccc2oc1=O)c1ccccc1[N+](=O)[O-],23.2
27,COc1ccc(NC(=O)CCc2nc3ccccc3s2)c(OC)c1,-0.68
28,Cc1ccc(NC(=O)COc2ccccc2C(N)=O)cc1S(=O)(=O)N1CCCCCC1,-37.8

row,SMILES,"hERG current change (%, negative = inhibition) at 10uM [%]"
1,CC1CC(C)CN(C(=O)c2ccc3c(c2NCCO)C(=O)c2ccccc2C3=O)C1 (stereo not shown),-13
2,O=C1C2C3C=CC(CC3)C2C(=O)N1c1ccccc1[N+](=O)[O-] (stereo not shown),12.8
3,O=C(CC(=O)Nc1cc(Cl)ccc1Cl)Nc1cc(Cl)ccc1Cl,25.4
4,Cc1cc(F)ccc1NCc1cc2c(cc1[N+](=O)[O-])OCO2.O=C(O)C(=O)O,7.77
5,CNc1nc(N)c(C(=O)C23CC4CC(CC(C4)C2)C3)s1,7.78
6,Cc1ccc(-n2nc(C)cc2NC(=O)c2ccc(C)s2)cc1,13.9
7,CCOC(=O)c1c(NC(=O)C2C3C=CC(C3)C2C(=O)O)sc2c1CC(C)(C)OC2 (stereo not shown),2.84
8,CCCCc1ccc(NC(=O)C2CCCC2)cc1,4.28
9,COC(=O)c1ccc(Cl)c(NC(=O)CN(c2ccccc2)S(=O)(=O)c2ccc(OC)cc2)c1,-11.5
10,Cc1ccc2cc(/C=N/NC(=O)[C@H]3C[C@@H]3c3ccccc3)c(Cl)nc2c1,14.1
11,Cc1ccc(-c2nnn(CC(=O)O)n2)cc1,-1.55
12,COc1cc(NC(=O)c2n[nH]c(=O)c3ccccc23)cc(OC)c1,9
13,CCC(=O)C(CCN1CCOCC1)(c1ccccc1)c1ccccc1,-16.5
14,Cc1ccc(NC(=O)C(C)OC(=O)COc2cccc(C(F)(F)F)c2)cc1 (stereo not shown),10.4
15,CCOc1ccc(C(=O)CCCC(=O)c2ccc(OCC)cc2)cc1,13.2
16,CCCn1cnc2scc(-c3ccc(C)cc3)c2c1=O,-21.9
17,CCCNC(=O)Nc1cc(C)on1,10.9
18,CCOC(=O)c1cnc(-n2[nH]c(C)c(Cc3ccccc3)c2=O)[nH]c1=O,2.11
19,CC(C)N(Cc1ccccc1)C(=O)COc1ccccc1,6.09
20,C=CCSc1nc2c(c(C3CC=CCC3)c1C#N)CCC2 (stereo not shown),-8.57
21,Cc1csc(NC(=O)C2CCN(S(=O)(=O)c3cccs3)CC2)n1,-27.3
22,COc1ccc(N(CC(=O)N2CCN(c3ccccc3F)CC2)S(=O)(=O)c2c(C)noc2C)cc1,16
23,COc1ccccc1OCCNC(=O)C(=O)c1c[nH]c2ccccc12,5.02
24,CCC(=O)Nc1nnc(Cc2ccccc2)s1,2.13
25,COc1ccccc1-c1cc(-c2ccccc2)nc(SC(C(N)=O)c2ccccc2)c1C#N (stereo not shown),15.3
26,CCCC(=O)Nc1ccc(C(=O)O)cc1NC(=O)CCC,8.09
27,Cc1nnc(Sc2c(-c3ccccc3)c3ccc(Cl)cc3[nH]c2=O)s1,-21.4
